# Source: the RNAGym collection of RNA variant scans (doi:10.7554/elife.90254)
# The source gives no read counts; variants with many changes may rest on few reads.
# B1: OR4K15 (parent)
# chain: GUUAACGGUCAUAGGCCAUGGAAACUAGGAGCACCAUUUCGCUGCCAGUGAAGAAAUGAACAAAGAAAAUCUGGGCCAGGCAGGCAUCAAAAGAAAUAGUCUUGCGCUCAACCAGAAAGUCUGUAAUCAUUUUAAGGGUA
# Variants of: B1
# Test: self-cleavage, relative activity (ratio to wild type); higher = more cleavage; in vitro, sequencing; the parent is a self-cleaving ribozyme
row,Variant,self-cleavage
1,U12A A96U U127A,1.17
2,U12C A51U A60G G80A,0.13
3,U12C A68G A92G A94G A117G,1.28
4,A13U A52G A63G U97C,1.22
5,A13U A52G A55G A60G,1.1
6,U12C A66G A94G,0.93
7,A11U A89G U100C U132C,2.07
8,A13U A110G U132C,0.03
9,A13G G50A A56G A118G U130C,0.33
10,U12C U87C A118G,0.57
11,U12C A36G A56G U122A,0.68
12,A13G A54G A111G,0.16
13,A13G A23G A62G U131C,0.19
14,A13C A67G A68G A90G A140G,1.08
15,U12C A23G A24G A118G,0.24
16,A13G U43C U57C G83A,0.85
17,U12C U39C A62G A67G U100C,1.53
18,U12A A86U U100C A111G,0
19,A13C U139C A140U,1.24
20,A13G U108C A126G,0.04
21,U12A A18U A24G A27U U103G A114U A118U,0.02

row,Variant,self-cleavage
1,U12C C45U A56G U72A,0.4
2,G14U A51G A54G A66G U87A,0.62
3,U12A A60U A66U U72A U133C,0.46
4,A13G A56G A125U,0
5,A13G A23G A52U A89G A116G,0.77
6,U12C U39A U49A U57C A82G A89G U122C,0.21
7,A11U A67G A117G,2.45
8,U12A G75A A140G,0.14
9,U12A A92G U124C,0.71
10,A13G A66G C121A,2.89
11,A13G A22G U43G A66G U102C A116G U131C,1.36
12,U12C U100G A114G U130C,0.28
13,A13G A23G A52G A116G,0.63
14,A11U G79A A117G,0.09
15,U12A A23G A33G A54G A116G U131C,0.29
16,A13U A24G A96G U127C,0.58
17,A13G A24G A60G A64G U70C A129G,0.88
18,A13U A118G U139C,1.02
19,U12C U57C U108C,0.1
20,U12C A67G U72A A82G A118G,0.08
21,G14A A24G U43C A55G A56G A62C U87C A95G,0.69

row,Variant,self-cleavage
1,A13U A60G C109G,0.07
2,U12A A51G G65A U72C A95G A116U,0.08
3,A11U U37C U49C U132C,1.28
4,A13U U37C U57C A92G U122C U130C,1.02
5,A13G U57C A67G A117G,0.87
6,A13G U49C A56G A68G,0.89
7,A13G A22G A111G,0.19
8,U12C A52G A59G,0.34
9,U12A A27G A86G A129G,0.67
10,A13G A51U A95G U124C,0.7
11,A13G U57C A118G,0.56
12,U12C A22G G58A,0.71
13,G14A A22U A66U,1.45
14,A13G U19C G138U,1.4
15,A13G A86G A90G,1.52
16,A13G U87C A116U,0.61
17,A13G A22G A118U,0.31
18,A11U U38C A95U,1.29
19,A13G A18G U57C A135G,1.33
20,A13G U70G U102G,0.29
21,U12C A62G A82U A126G,0.19

row,Variant,self-cleavage
1,U12C A13G A22G A117U,0.45
2,A11U U19C A64G A118G,2.45
3,U12C A60G A82U U120G,0.15
4,U12C A60G A92G,1.45
5,A13G U97C A118G,0.32
6,A13U A89G A110G A118G,0.22
7,A13G A18G U97C A125U,1.25
8,A13U U19A A56G A82U U131C,0.29
9,U12A U43C A60G U131C,1.2
10,U12C A69G A116G,0.55
11,U12C A23G U72A C81U,0.35
12,U12A C25U A92G A117G A140U,1.52
13,A13G A55G A64G,1.65
14,A13G A56G U108C,0.07
15,A13G U39C A60G,1.1
16,A13U U37C A78U U133C,0.47
17,U12A A18U U43C A51G,1.02
18,A13U A22G A69G A78U U100C G123A U132A,0.99
19,A13U U37C A129G,1.33
20,A11U G41A A68G A95G,1.7
